# Source: publication PMC9911399, “Two distinct binding modes provide the RNA-binding protein RbFox with extraordinary sequence specificity”
# Changes are numbered by the printed parent chain; changes in the protein carry UniProt numbers. This is one part of the list.
# T1: RBFOX1 RRM RbFoxmut (Fox-RRM*) (Homo sapiens, UniProt Q9NWB1 109-208, R118D;E147R;N151S;E152T)
# T1 sequence: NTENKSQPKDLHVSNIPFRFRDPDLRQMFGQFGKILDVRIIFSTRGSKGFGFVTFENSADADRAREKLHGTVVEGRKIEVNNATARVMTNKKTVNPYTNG
# B1: AAACUUA (DNA:RNA)
# RNA: GGGAGACCGGAAUUCAGAUUGUCCAAACUUAUUAAAUCCCGUCGUAGCCACCA
# DNA 1: CAATCTGAATTCCGGTCTCCC
# DNA 2: TGGTGGCTACGACGGGATT
# B2: UCGGCGC (DNA:RNA)
# RNA: GGGAGACCGGAAUUCAGAUUGUCCUCGGCGCUUAAAUCCCGUCGUAGCCACCA
# DNA 1: CAATCTGAATTCCGGTCTCCC
# DNA 2: TGGTGGCTACGACGGGATT
# B3: CACUCCC (DNA:RNA)
# RNA: B2 RNA with U25C, C26A, G27C, G28U, G30C
# DNA 1: CAATCTGAATTCCGGTCTCCC
# DNA 2: TGGTGGCTACGACGGGATT
# B4: UUUUUAU (DNA:RNA)
# RNA: B1 RNA with A25U, A26U, A27U, C28U, U30A, A31U
# DNA 1: CAATCTGAATTCCGGTCTCCC
# DNA 2: TGGTGGCTACGACGGGATT
# B5: GACGGGG (DNA:RNA)
# RNA: B2 RNA with U25G, C26A, G27C, C29G, C31G
# DNA 1: CAATCTGAATTCCGGTCTCCC
# DNA 2: TGGTGGCTACGACGGGATT
# B6: CCGUGUG (DNA:RNA)
# RNA: B2 RNA with U25C, G28U, C29G, G30U, C31G
# DNA 1: CAATCTGAATTCCGGTCTCCC
# DNA 2: TGGTGGCTACGACGGGATT
# B7: GCGCUUA (DNA:RNA)
# RNA: B1 RNA with A25G, A26C, A27G
# DNA 1: CAATCTGAATTCCGGTCTCCC
# DNA 2: TGGTGGCTACGACGGGATT
# B8: ACCUAGU (DNA:RNA)
# RNA: B2 RNA with U25A, G27C, G28U, C29A, C31U
# DNA 1: CAATCTGAATTCCGGTCTCCC
# DNA 2: TGGTGGCTACGACGGGATT
# B9: CUCAUAU (DNA:RNA)
# RNA: B1 RNA with A25C, A26U, A27C, C28A, U30A, A31U
# DNA 1: CAATCTGAATTCCGGTCTCCC
# DNA 2: TGGTGGCTACGACGGGATT
# B10: CAUGGGC (DNA:RNA)
# RNA: B2 RNA with U25C, C26A, G27U, C29G
# DNA 1: CAATCTGAATTCCGGTCTCCC
# DNA 2: TGGTGGCTACGACGGGATT
# B11: CACUAAC (DNA:RNA)
# RNA: B1 RNA with A25C, A27C, C28U, U29A, U30A, A31C
# DNA 1: CAATCTGAATTCCGGTCTCCC
# DNA 2: TGGTGGCTACGACGGGATT
# B12: AGAAACA (DNA:RNA)
# RNA: B1 RNA with A26G, C28A, U29A, U30C
# DNA 1: CAATCTGAATTCCGGTCTCCC
# DNA 2: TGGTGGCTACGACGGGATT
# B13: CUGAAUG (DNA:RNA)
# RNA: B1 RNA with A25C, A26U, A27G, C28A, U29A, A31G
# DNA 1: CAATCTGAATTCCGGTCTCCC
# DNA 2: TGGTGGCTACGACGGGATT
# B14: AUCUGGU (DNA:RNA)
# RNA: B1 RNA with A26U, A27C, C28U, U29G, U30G, A31U
# DNA 1: CAATCTGAATTCCGGTCTCCC
# DNA 2: TGGTGGCTACGACGGGATT
# B15: ACUGGUG (DNA:RNA)
# RNA: B1 RNA with A26C, A27U, C28G, U29G, A31G
# DNA 1: CAATCTGAATTCCGGTCTCCC
# DNA 2: TGGTGGCTACGACGGGATT
# B16: CAAAGUC (DNA:RNA)
# RNA: B1 RNA with A25C, C28A, U29G, A31C
# DNA 1: CAATCTGAATTCCGGTCTCCC
# DNA 2: TGGTGGCTACGACGGGATT
# B17: GAAGGCU (DNA:RNA)
# RNA: B1 RNA with A25G, C28G, U29G, U30C, A31U
# DNA 1: CAATCTGAATTCCGGTCTCCC
# DNA 2: TGGTGGCTACGACGGGATT
# B18: CGCACAC (DNA:RNA)
# RNA: B2 RNA with U25C, C26G, G27C, G28A, G30A
# DNA 1: CAATCTGAATTCCGGTCTCCC
# DNA 2: TGGTGGCTACGACGGGATT
# B19: GAGGCCU (DNA:RNA)
# RNA: B2 RNA with U25G, C26A, G30C, C31U
# DNA 1: CAATCTGAATTCCGGTCTCCC
# DNA 2: TGGTGGCTACGACGGGATT
# B20: CCUGAUU (DNA:RNA)
# RNA: B2 RNA with U25C, G27U, C29A, G30U, C31U
# DNA 1: CAATCTGAATTCCGGTCTCCC
# DNA 2: TGGTGGCTACGACGGGATT
# B21: CAGGAGG (DNA:RNA)
# RNA: B2 RNA with U25C, C26A, C29A, C31G
# DNA 1: CAATCTGAATTCCGGTCTCCC
# DNA 2: TGGTGGCTACGACGGGATT
# B22: AGUAUCG (DNA:RNA)
# RNA: B1 RNA with A26G, A27U, C28A, U30C, A31G
# DNA 1: CAATCTGAATTCCGGTCTCCC
# DNA 2: TGGTGGCTACGACGGGATT
# B23: UCUCAGG (DNA:RNA)
# RNA: B2 RNA with G27U, G28C, C29A, C31G
# DNA 1: CAATCTGAATTCCGGTCTCCC
# DNA 2: TGGTGGCTACGACGGGATT
# B24: GAUACAG (DNA:RNA)
# RNA: B1 RNA with A25G, A27U, C28A, U29C, U30A, A31G
# DNA 1: CAATCTGAATTCCGGTCTCCC
# DNA 2: TGGTGGCTACGACGGGATT
# B25: CGUUAUG (DNA:RNA)
# RNA: B1 RNA with A25C, A26G, A27U, C28U, U29A, A31G
# DNA 1: CAATCTGAATTCCGGTCTCCC
# DNA 2: TGGTGGCTACGACGGGATT
# B26: AGGAUAC (DNA:RNA)
# RNA: B1 RNA with A26G, A27G, C28A, U30A, A31C
# DNA 1: CAATCTGAATTCCGGTCTCCC
# DNA 2: TGGTGGCTACGACGGGATT
# B27: CCGUCCG (DNA:RNA)
# RNA: B2 RNA with U25C, G28U, G30C, C31G
# DNA 1: CAATCTGAATTCCGGTCTCCC
# DNA 2: TGGTGGCTACGACGGGATT
# B28: CGUCUAU (DNA:RNA)
# RNA: B1 RNA with A25C, A26G, A27U, U30A, A31U
# DNA 1: CAATCTGAATTCCGGTCTCCC
# DNA 2: TGGTGGCTACGACGGGATT
# B29: GUCCAAA (DNA:RNA)
# RNA: B1 RNA with A25G, A26U, A27C, U29A, U30A
# DNA 1: CAATCTGAATTCCGGTCTCCC
# DNA 2: TGGTGGCTACGACGGGATT
# B30: GGUAUGA (DNA:RNA)
# RNA: B1 RNA with A25G, A26G, A27U, C28A, U30G
# DNA 1: CAATCTGAATTCCGGTCTCCC
# DNA 2: TGGTGGCTACGACGGGATT
# B31: GGUUCGC (DNA:RNA)
# RNA: B2 RNA with U25G, C26G, G27U, G28U
# DNA 1: CAATCTGAATTCCGGTCTCCC
# DNA 2: TGGTGGCTACGACGGGATT
# Target: T1, RBFOX1 RRM RbFoxmut (Fox-RRM*)
# Test: EMSA; HiTS-Eq, 1 nM pool, 10 min; buffer printed only for the single-RNA assays: 10 mM Tris pH 7.5, 150 mM NaCl, 3.4 mM EDTA, 0.001% NP-40, 30 C
# Conditions: tags: His6 N-terminal (pET28a); label: 5' 32P
# Method in brief: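 A pool of RNA with 7 randomized nucleotides, 5′-radiolabelled and with DNA-annealed flanks, was equilibrated at 1 nM for 10 min in 50 µL with purified RbFox RRM, wild type or mutant, across increasing protein concentrations. Free RNA was separated by 8% native PAGE, excised, reverse-transcribed, barcoded by PCR and sequenced. Relative association constants were obtained from read-count changes of each RNA species versus the control reaction and normalised to the cognate motif.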
row,Binder,binding signal
1,B1,0.0884 KA relative to UGCAUGU
2,B2,0.0891 KA relative to UGCAUGU
3,B3,0.0683 KA relative to UGCAUGU
4,B4,0.111 KA relative to UGCAUGU
5,B5,0.0441 KA relative to UGCAUGU
6,B6,0.167 KA relative to UGCAUGU
7,B7,0.108 KA relative to UGCAUGU
8,B8,0.14 KA relative to UGCAUGU
9,B9,0.113 KA relative to UGCAUGU
10,B10,0.0887 KA relative to UGCAUGU
11,B11,0.098 KA relative to UGCAUGU
12,B12,0.0753 KA relative to UGCAUGU
13,B13,0.915 KA relative to UGCAUGU
14,B14,0.121 KA relative to UGCAUGU
15,B15,0.131 KA relative to UGCAUGU
16,B16,0.0454 KA relative to UGCAUGU

row,Binder,binding signal
1,B17,0.0674 KA relative to UGCAUGU
2,B18,0.0785 KA relative to UGCAUGU
3,B19,0.0941 KA relative to UGCAUGU
4,B20,0.0817 KA relative to UGCAUGU
5,B21,0.107 KA relative to UGCAUGU
6,B22,0.293 KA relative to UGCAUGU
7,B23,0.114 KA relative to UGCAUGU
8,B24,0.0827 KA relative to UGCAUGU
9,B25,0.269 KA relative to UGCAUGU
10,B26,0.109 KA relative to UGCAUGU
11,B27,0.0957 KA relative to UGCAUGU
12,B28,0.107 KA relative to UGCAUGU
13,B29,0.0688 KA relative to UGCAUGU
14,B30,0.468 KA relative to UGCAUGU
15,B31,0.145 KA relative to UGCAUGU
